# In the supplement of paper PMC3334620:
# Over roughly 33,000 sequences, “E-score (-0.5 to 0.5)” has its median near -0.056; the highest 2% begin near 0.38. This is one part of the list.
# Target: Stb4 (UniProt P50104)
# Assay: PBM E-score (8-mer binding enrichment) (E-score (-0.5 to 0.5)); higher = stronger / more preferred TF binding; most listed sequences are background and not binding sites
# Conditions: protein concentration: 200 nM; construct: GST-DNA-binding domain
# Procedure: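 Universal 'all 10-mer' protein binding microarrays (Agilent AMADID 015681) probed with GST-tagged S. cerevisiae TFs (full-length or DBD) made by in vitro transcription/translation (PURExpress), about 100-200 nM. Bound TF was detected with fluorescent anti-GST. Each ungapped 8-mer (which stands for itself and its reverse complement) is scored by the PBM enrichment score (E-score), a modified Wilcoxon-Mann-Whitney statistic from -0.5 to +0.5, computed with the Universal PBM Analysis Suite. Scale: above 0.35 generally sequence-specific binding.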
row,Sequence,PBM E-score
1,CAGACTTC,-0.212
2,AGCACGCC,-0.029
3,AGGAGGTA,-0.0982
4,GCAGACAA,-0.0753
5,GGTCCAAA,0.111
6,ATTTTAGA,0.0944
7,AGACCCAC,0.0322
8,CAGTGCAG,-0.129
9,CGTAGCCA,-0.0402
10,ACGCACGC,0.11
11,CTAGGTGA,-0.384
12,GCGCTTGA,0.0219
13,ACTGAAGG,-0.0721
14,AAACCTGA,-0.0724
15,ATGTACAT,-0.258
16,TTGGACAA,0.047
17,CGTACCAG,-0.103
18,AGCCGTCA,0.237
19,AGCCACGG,0.0348
20,AACCATGG,-0.0283
21,ATGGTAAT,0.149
22,AGATCGTA,-0.099
23,ATTCGAGG,-0.096
24,CTCAACAA,-0.206
25,GATCCTAA,-0.165

row,Sequence,PBM E-score
1,ATCTTTGG,-0.165
2,CCAGAGGG,0.0202
3,ATATTACA,0.0675
4,AGTCTAGC,-0.148
5,GACATCCC,0.128
6,AATATAAA,0.0199
7,GAATCGTC,0.115
8,CGGTTGGC,0.184
9,CTTGGTAA,-0.185
10,GGCAGAAC,0.0679
11,CCATGTCA,-0.32
12,GGCAGCCC,0.151
13,GAAGGCAC,0.0839
14,AGCAAGCG,0.163
15,CCTTGGAC,-0.131
16,GGGGACAC,-0.11
17,CTTAGTGC,0.0187
18,ACAGGCAT,-0.242
19,AGGATCGA,0.00545
20,AGCCGGAG,0.379
21,CCTGAACC,-0.232
22,GTATACAC,0.103
23,CACCGGGC,0.12
24,AACCCACT,0.0655
25,GGGGGTGA,-0.12

row,Sequence,PBM E-score
1,AGGAGGAT,-0.171
2,AAGCCTAC,-0.253
3,GCTTGTCC,0.0568
4,ACCAGCCT,-0.171
5,CCAGCGAG,-0.128
6,CCCGCTTC,0.211
7,ATCAATTC,-0.097
8,GTTAAAAA,0.00196
9,CTTGGAAA,0.0714
10,GTTGCGCA,-0.11
11,TGTCCAAA,-0.167
12,AAGACCTT,-0.178
13,GTGTCCGA,0.31
14,ATTCCGTC,0.285
15,CCCAGGGA,-0.218
16,TGGAGTAA,-0.192
17,CGAAATCC,0.165
18,CGCTAACA,-0.0865
19,ACATATGC,-0.279
20,CGAGTATA,0.0788
21,TCTTGCAA,0.0931
22,ATATTTTA,-0.00971
23,GCCACCGA,0.0486
24,AGACCGAC,0.19
25,ACGTTATC,-0.0756

row,Sequence,PBM E-score
1,AGCACTGA,-0.229
2,AACAGCCT,-0.151
3,ATCCTGAC,-0.112
4,ATGGCGTC,-0.158
5,AAACGTGC,-0.118
6,CGAATTAA,0.0779
7,AGCTTCCG,0.423
8,CCATGTCG,-0.0127
9,CCGGACCA,0.201
10,ACAAGCCC,-0.136
11,ACTTGCGA,-0.0723
12,AAGTATAT,0.099
13,ATCAGTAG,-0.126
14,ATCCGACC,0.425
15,AGGTAAAG,0.119
16,AATTACTG,-0.23
17,ACTGCGCA,0.0792
18,CATGGACC,-0.151
19,ACAGTTGA,-0.215
20,ACCCCATC,-0.109
21,CCCATAAC,0.041
22,AGTTTATA,0.108
23,CTATCGCA,-0.178
24,GCCTTGTA,-0.208
25,CGTAGGTA,0.0315

row,Sequence,PBM E-score
1,CCCAATCA,-0.152
2,ATGTGACA,-0.294
3,ACGACTGC,-0.203
4,AAACTCAC,-0.091
5,ATAGATTG,0.2
6,CGCCAAAG,-0.163
7,GAGCCACA,-0.0875
8,CTGTGCTA,-0.11
9,ATTGATCC,0.281
10,TAACGTTA,0.164
11,TCGCGCGA,0.0834
12,AGAACTAG,-0.216
13,CGAATACC,0.0866
14,AGATCCAA,-0.16
15,CAAGTGCG,-0.0295
16,GGGTCGAA,0.0324
17,ATACCGGA,0.34
18,CGCAGAAG,-0.1
19,AGATCTCC,0.0254
20,AGGCCGGG,0.181
21,CATCCCGG,0.342
22,ACCTGTAG,-0.0917
23,ACAAGAAG,-0.0913
24,ATAAGAGG,0.0401
25,GTGGCAGA,-0.22

row,Sequence,PBM E-score
1,ATGTGCCG,0.299
2,CCGCTTAC,0.00078
3,GAACATGA,0.0115
4,CGAAATTA,0.259
5,CATGCCTA,-0.0634
6,CCCTCGCC,-0.217
7,TTGCCAAA,0.0529
8,TACAAACA,-0.0674
9,AACCCTGA,-0.0704
10,CCGGCACC,0.334
11,CACGCGCG,-0.169
12,CTTATGCC,0.052
13,GCAAGGGC,-0.269
14,ATCGATTG,-0.0431
15,AACGCCAG,0.0613
16,AGCCATCC,0.107
17,CTGAACAC,0.00106
18,GCGTAGGA,0.0728
19,CACAGCCA,-0.023
20,AGCTGGGA,-0.141
21,CGCCCAGC,-0.1
22,GAGTACCC,0.0867
23,AGGCCGTC,-0.046
24,CTACCTGC,0.0989
25,CACGACCA,-0.118

row,Sequence,PBM E-score
1,ATCCGAGA,0.471
2,AGGTATAG,-0.0811
3,CGAAACGC,0.0894
4,GAATGCCA,-0.0318
5,AGTAGCGG,0.145
6,ATCCTTTC,-0.138
7,GGCCTAAA,-0.102
8,ACTGTCGA,-0.19
9,GACGTCGA,-0.0717
10,ACAGACAG,-0.234
11,ACCAGTGG,-0.197
12,GGCGGGGA,0.309
13,ACAGTGGT,-0.144
14,CCGATCTA,0.281
15,ATATTAAG,-0.00502
16,GCAACGCC,-0.0543
17,AAATGACC,0.0512
18,AAAACTTT,0.0161
19,CACTGGTC,0.00588
20,AACGGCCA,0.165
21,GCGTCAAA,-0.139
22,CGGTTACC,0.228
23,ACACGCGT,-0.128
24,AGTTGCTC,-0.202
25,AATGGCCA,-0.0901

row,Sequence,PBM E-score
1,AGCTTTCA,-0.182
2,ACCCCGAT,0.266
3,AAGTGCTA,-0.264
4,GGTTGGAC,0.00083
5,CGACGGTC,-0.0145
6,CAAACAGC,-0.14
7,AGCGTCGA,-0.226
8,CACCTTGC,-0.163
9,TGGCTACA,-0.018
10,AAGGGAGA,-0.194
11,CAAACAAA,-0.181
12,GATCATGA,-0.0718
13,CTCATCAC,-0.116
14,GCTGCATA,-0.0697
15,CGCGCAAA,0.0132
16,AAGGGCCA,-0.33
17,TCCACTAA,-0.0941
18,CGCCCGAG,0.328
19,ATAACATA,0.0949
20,ACTGCGTA,-0.143
21,CTGGGTAA,-0.172
22,ACTCCTAA,-0.273
23,ATACACGC,0.0458
24,CTGCCCCA,-0.0766
25,ATCGGGTG,0.366

row,Sequence,PBM E-score
1,GAAACTAA,0.0282
2,GCTATGAA,-0.0486
3,ATTGTACG,-0.0394
4,GTCCAGTA,-0.179
5,AACACAAT,-0.223
6,TCCGGTCA,0.204
7,AATGTGCT,0.0139
8,AGGGCCTA,-0.0151
9,CTGGCATC,-0.176
10,ACGCTTTC,0.0561
11,AATCCGCA,0.157
12,AAGGTATC,0.0541
13,CTATGGTC,-0.113
14,CTGGCGTA,-0.264
15,CCAAGCCA,-0.287
16,AAGAAAAG,-0.0789
17,TCGTACAA,-0.243
18,CACTACTG,-0.189
19,GAAGGCCA,-0.169
